Laboratory results published in the supplement of paper PMC4166925.
± gives the standard deviation of the averaged measurements. Over roughly 33,000 sequences, “E-score (dimensionless, -0.5 to 0.5)” has its median near -0.049; the highest 2% begin near 0.37. Some of the results follow.

system: T1, PmTbr T-box DNA-binding domain (GST fusion); assay: PBM E-score of 8-mer (E-score (dimensionless, -0.5 to 0.5)); Tbr is Tbrain of the sea star Patiria miniata (Pm) or the sea urchin Strongylocentrotus purpuratus (Sp); higher = stronger binding preference; most listed sequences are background and not binding sites; conditions: the construct has about 5 more residues each side
T1 sequence: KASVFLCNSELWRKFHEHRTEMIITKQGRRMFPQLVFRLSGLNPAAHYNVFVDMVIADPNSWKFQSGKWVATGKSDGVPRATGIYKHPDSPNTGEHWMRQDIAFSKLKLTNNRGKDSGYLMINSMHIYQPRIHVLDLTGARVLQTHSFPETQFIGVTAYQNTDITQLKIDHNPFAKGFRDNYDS
Method in brief: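 Universal Agilent oligonucleotide arrays, made double-stranded by primer extension, were incubated with 200 nM GST-fused Tbr T-box DNA-binding domain in PBS (pH 7.5). The protein was expressed in BL21 E. coli at 20 °C and purified by glutathione affinity chromatography. After scanning and quantification, the Universal PBM Analysis Suite assigned an enrichment E-score to each ungapped 8-mer, averaged over duplicate arrays.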

Sequence | PBM E-score of 8-mer
AAGGCTGG | -0.0845 ± 0.064
CCCAAAAG | -0.144 ± 0.081
AGTGGAGA | -0.21 ± 0.015
ATAGGGGG | -0.0469 ± 0.086
ATAGTGGC | 0.12 ± 0.015
AAGGAACG | -0.138 ± 0.034
ATCATACG | -0.0663 ± 0.028
AGCCGCCG | -0.0524 ± 0.0007
ATACTGAA | -0.116 ± 0.013
AACACCTG | 0.472 ± 0.0011
CATACTGG | -0.129 ± 0.076
GTTCTGTA | -0.0395 ± 0.03
ATACGAGC | -0.0466 ± 0.092
AGAACATA | 0.0163 ± 0.016
ACTTCAGG | 0.174 ± 0.048
CAACGCCA | 0.0666 ± 0.048
TTCCCAAA | -0.216 ± 0.062
CATGCTGA | -0.062 ± 0.12
GCCCTATA | -0.193 ± 0.047
ATCCGGCC | -0.199 ± 0.013
CTTGACAC | 0.43 ± 0.023
ACGTGCGC | 0.0305 ± 0.051

Sequence | PBM E-score of 8-mer
TAAAAAGA | -0.101 ± 0.067
ACGACGAC | 0.142 ± 0.049
ATGTGTAA | 0.33 ± 0.043
CAGTGCGC | -0.0646 ± 0.032
GAACATCA | -0.0555 ± 0.02
GCTCGTCC | -0.364 ± 0.02
AGGCTATG | -0.404 ± 0.014
GAGTTAAC | 0.155 ± 0.042
CCAGGCGC | 0.226 ± 0.003
CGTGATTA | 0.192 ± 0.047
CTGGAACC | -0.178 ± 0.014
AACCAGCT | 0.109 ± 0.029
AGTCAGAT | -0.157 ± 0.071
CTTAACGC | 0.215 ± 0.031
ACCCCAGG | -0.0633 ± 0.019
CGTTGACC | 0.0227 ± 0.075
CCAATGGA | -0.188 ± 0.025
CAGCTGGC | 0.0865 ± 0.00029
GAAGCATC | -0.0985 ± 0.021
AACTGTTC | -0.036 ± 0.022
ACGCGCAG | -0.0633 ± 0.036
GAAATCGC | 0.281 ± 0.031

Sequence | PBM E-score of 8-mer
CCCCCTAG | -0.211 ± 0.016
GATACCCC | -0.3201 ± 0.0032
ACTCATCT | -0.112 ± 0.0092
CAATTCGG | -0.0579 ± 0.0054
CTGGAGAA | -0.077 ± 0.026
AATCCAGC | -0.0472 ± 0.0098
CCACACTA | 0.248 ± 0.017
CCTATGTC | -0.0631 ± 0.04
AGCCCCAA | 0.038 ± 0.089
CTGAATAC | -0.0727 ± 0.016
TCATGCAA | -0.15 ± 0.025
AAGTCGAT | 0.091 ± 0.047
CAGAAAAG | 0.108 ± 0.0083
AAATCTCC | -0.209 ± 0.014
CAGATAGG | 0.0267 ± 0.037
AGCGATAC | 0.0833 ± 0.021
AACTCACT | 0.0854 ± 0.063
CGGCTAGC | 0.119 ± 0.04
TCCCCGCA | -0.0149 ± 0.032
AGTCTTGG | -0.135 ± 0.073
CATTGGCA | 0.167 ± 0.014
GGCCAAAC | -0.133 ± 0.011

Sequence | PBM E-score of 8-mer
CACATCGA | 0.179 ± 0.075
AAGAACAT | -0.0827 ± 0.014
CAAAGTTG | 0.113 ± 0.0087
GTCCGAGA | -0.113 ± 0.019
AAGGGGAT | 0.0423 ± 0.043
ATATTCGC | 0.186 ± 0.084
AATAGTCG | -0.0927 ± 0.035
GCGAGCCC | -0.131 ± 0.048
CGGTAACA | 0.218 ± 0.028
CCTAGATA | -0.21 ± 0.035
GCCCGTGA | 0.0152 ± 0.0011
AAGAGGCG | 0.198 ± 0.011
AGAGCCAC | -0.0799 ± 0.014
AAGCACTT | 0.0628 ± 0.008
CTGTAGGA | -0.135 ± 0.004
CGTGACCA | 0.259 ± 0.018
GCCTAGCC | -0.0797 ± 0.0045
AGCTCATA | -0.0174 ± 0.0027
AGCATTGA | -0.229 ± 0.054
TTCGTAAA | -0.0367 ± 0.1
